Source: publication PMC3598994
No constants are given. Whether binding was seen depends on the method and setting. Binding seen in cells or lysates may run through a third protein. Some binding calls cover weakened binding; strength is not graded here. Sequences can lack the tags named with a protein.

By UniProt entry, the sequences of proteins in these tests, tags left out. Residues count along the entry.
UniProt P11021, residues 19-654: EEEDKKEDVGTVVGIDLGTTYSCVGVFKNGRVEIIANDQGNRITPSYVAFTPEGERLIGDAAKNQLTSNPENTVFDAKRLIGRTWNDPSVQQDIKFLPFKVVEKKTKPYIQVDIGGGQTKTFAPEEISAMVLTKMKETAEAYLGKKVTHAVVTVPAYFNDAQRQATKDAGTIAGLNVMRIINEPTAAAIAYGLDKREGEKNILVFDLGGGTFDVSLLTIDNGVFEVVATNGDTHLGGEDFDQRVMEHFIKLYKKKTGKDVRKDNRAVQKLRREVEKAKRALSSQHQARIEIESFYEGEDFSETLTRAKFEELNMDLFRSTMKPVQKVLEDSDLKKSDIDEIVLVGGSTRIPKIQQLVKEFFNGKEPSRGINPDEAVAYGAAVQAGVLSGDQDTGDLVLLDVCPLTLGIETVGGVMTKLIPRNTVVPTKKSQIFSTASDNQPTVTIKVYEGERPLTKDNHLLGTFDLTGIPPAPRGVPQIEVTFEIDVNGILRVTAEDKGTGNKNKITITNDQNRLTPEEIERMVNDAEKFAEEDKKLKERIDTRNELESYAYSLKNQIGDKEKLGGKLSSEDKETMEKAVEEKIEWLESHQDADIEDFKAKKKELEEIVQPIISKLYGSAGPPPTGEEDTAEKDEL
UniProt P14625, residues 22-803: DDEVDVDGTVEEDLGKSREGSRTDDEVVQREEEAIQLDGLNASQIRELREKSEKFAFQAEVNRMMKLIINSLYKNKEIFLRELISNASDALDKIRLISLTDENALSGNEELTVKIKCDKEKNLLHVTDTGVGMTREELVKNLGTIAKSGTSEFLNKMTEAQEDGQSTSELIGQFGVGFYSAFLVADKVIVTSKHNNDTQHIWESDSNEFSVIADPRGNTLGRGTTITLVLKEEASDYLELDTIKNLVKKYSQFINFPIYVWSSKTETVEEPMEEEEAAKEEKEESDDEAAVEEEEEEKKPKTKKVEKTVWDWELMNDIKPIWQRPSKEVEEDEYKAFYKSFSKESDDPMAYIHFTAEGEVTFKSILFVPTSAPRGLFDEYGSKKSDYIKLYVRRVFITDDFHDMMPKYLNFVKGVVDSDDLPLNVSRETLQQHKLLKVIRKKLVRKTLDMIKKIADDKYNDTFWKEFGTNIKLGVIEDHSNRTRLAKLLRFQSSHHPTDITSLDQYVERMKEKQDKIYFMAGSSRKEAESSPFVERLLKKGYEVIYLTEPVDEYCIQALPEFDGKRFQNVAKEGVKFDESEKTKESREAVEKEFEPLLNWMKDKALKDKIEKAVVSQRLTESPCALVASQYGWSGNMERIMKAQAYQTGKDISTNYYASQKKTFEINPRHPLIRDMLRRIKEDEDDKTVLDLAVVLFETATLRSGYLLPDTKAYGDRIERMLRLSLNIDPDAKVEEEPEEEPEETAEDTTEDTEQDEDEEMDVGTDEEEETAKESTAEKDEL
UniProt P07237, residues 18-508: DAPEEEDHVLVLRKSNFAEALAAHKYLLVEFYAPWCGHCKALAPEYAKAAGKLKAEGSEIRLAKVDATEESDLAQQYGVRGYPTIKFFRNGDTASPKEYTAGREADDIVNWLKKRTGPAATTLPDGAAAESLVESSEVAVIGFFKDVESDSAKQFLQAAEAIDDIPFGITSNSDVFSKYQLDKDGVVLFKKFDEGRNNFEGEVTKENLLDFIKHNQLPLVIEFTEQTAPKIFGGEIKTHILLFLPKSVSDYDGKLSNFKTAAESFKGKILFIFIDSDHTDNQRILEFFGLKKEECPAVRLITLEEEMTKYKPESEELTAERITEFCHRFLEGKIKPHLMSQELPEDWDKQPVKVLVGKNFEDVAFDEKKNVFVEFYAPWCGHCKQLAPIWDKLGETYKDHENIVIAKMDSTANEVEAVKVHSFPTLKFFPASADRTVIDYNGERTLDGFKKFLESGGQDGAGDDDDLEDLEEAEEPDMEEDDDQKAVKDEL

T1: GST-fused Bag5 (Bcl-2 associated athanogene 5), full length (UniProt Q9UL15)
T1 sequence: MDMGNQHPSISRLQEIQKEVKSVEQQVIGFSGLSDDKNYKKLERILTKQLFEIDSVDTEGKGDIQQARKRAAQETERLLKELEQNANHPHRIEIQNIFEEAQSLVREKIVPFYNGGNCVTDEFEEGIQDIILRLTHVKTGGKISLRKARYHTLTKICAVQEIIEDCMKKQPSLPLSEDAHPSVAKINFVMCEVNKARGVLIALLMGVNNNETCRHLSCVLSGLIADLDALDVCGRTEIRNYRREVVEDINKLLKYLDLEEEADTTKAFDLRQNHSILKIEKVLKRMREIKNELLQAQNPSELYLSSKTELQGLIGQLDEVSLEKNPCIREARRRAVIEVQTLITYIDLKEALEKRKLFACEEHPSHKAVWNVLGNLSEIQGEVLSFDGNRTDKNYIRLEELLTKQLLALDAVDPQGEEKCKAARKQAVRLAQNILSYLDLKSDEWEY


How the values were obtained:
[1] = molecular target: T1, GST-fused Bag5 (Bcl-2 associated athanogene 5), full length; experiment: pull-down; 10 μg of GST-Bag5 incubated with 250 μg of 22Rv.1 cell lysate; western blot with specific antibodies; only the target purified
[2] = molecular target: T1, GST-fused Bag5 (Bcl-2 associated athanogene 5), full length; experiment: pull-down; 10 μg of GST-fused Bag5 or deletion mutant incubated with 500 μg of 22Rv.1 cell lysate; western blot with anti-GRP78; only the target purified
[3] = molecular target: GRP78/BiP, endogenous in HEK293 cells (human (endogenous in HEK293)) (UniProt P11021); experiment: co-IP; HEK293 cells transfected with HA-Bag5, cross-linked with DSP; GRP78/BiP immunoprecipitated with an anti-GRP78 antibody on protein A sepharose, IgG as negative control; blot with anti-HA and anti-GRP78

Row | Molecule | binding [1] | binding [2] | binding [3]
1 | GRP78/BiP, endogenous in 22Rv.1 prostate cancer cells (from UniProt P11021 19-654) | binds | binds | 
2 | GRP94, endogenous in 22Rv.1 cells (from UniProt P14625 22-803) | no binding |  | 
3 | protein disulfide isomerase (PDI), endogenous in 22Rv.1 cells (from UniProt P07237 18-508) | no binding |  | 
4 | HA-Bag5 (protein, UniProt Q9UL15 1-447) MDMGNQHPSISRLQEIQKEVKSVEQQVIGFSGLSDDKNYKKLERILTKQLFEIDSVDTEGKGDIQQARKRAAQETERLLKELEQNANHPHRIEIQNIFEEAQSLVREKIVPFYNGGNCVTDEFEEGIQDIILRLTHVKTGGKISLRKARYHTLTKICAVQEIIEDCMKKQPSLPLSEDAHPSVAKINFVMCEVNKARGVLIALLMGVNNNETCRHLSCVLSGLIADLDALDVCGRTEIRNYRREVVEDINKLLKYLDLEEEADTTKAFDLRQNHSILKIEKVLKRMREIKNELLQAQNPSELYLSSKTELQGLIGQLDEVSLEKNPCIREARRRAVIEVQTLITYIDLKEALEKRKLFACEEHPSHKAVWNVLGNLSEIQGEVLSFDGNRTDKNYIRLEELLTKQLLALDAVDPQGEEKCKAARKQAVRLAQNILSYLDLKSDEWEY |  |  | binds
